# Source: the supplement of paper PMC8728848
# Some of the results follow.
# B1: PX9937A-bvu-521-23-521 (Bacteroides vulgatus) (protein)
# chain: LDLAPEDYYGAGNFWKEASQPKAFMLGLHAQLRSYYDMFYTLGELRGGTQRVGTSSLNTSLNYADIRSQNISEDIPGISNWNGLYSPIMQVNHFIQEVENGCTFLDDATRSRYLGQAYGMRALYYFMLYRTFGGVPLITKVDILDGKPSADKFYVERATPEATMEFIKADINKSENYFGNNTSFDAYDWSRYATLMLKAEIYMWAAKVSITGFTATGATDLQTAKTALSGIIGHFELMDNFASIFSCDNKKNTEIIFAMPFIEGEASNDGGRFLYQDAVFLGQAYGRNGKVIEKDTLNLKGTGGVFRDEYTEDFWKTFKEGDSRRDATFMEYYMKNDNGTLSEFGCVMKKRIGTINSNDNRIYISDIPVYRYADALLMMAEIENGLNNPCASYINEVRKRAYGDTFEENKYTEGSYAENELAILQERDKEFVSEGKRWFDVLRMHDASGRSLVFSANANYPGTNPILGTEEAYKMLWPVNIGTLNVNPLLTQTPGYGKK
# Columns and labels:
# Test in all cases: glycan array binding signal (z-score within array); higher = stronger binding
# Conditions in all cases: glycan notation: IUPAC condensed, linker removed
# [1] = biological target: Fuc(a1-2)Gal(b1-4)GlcNAc(b1-3)Gal(b1-4)GlcNAc(b1-3)Gal(b1-4)GlcNAc
# Outline: (§1)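 From the Consortium for Functional Glycomics database, 3228 arrays were curated, keeping only those whose protein sequence was available. Binding is given as a within-array Z-score averaged across arrays sharing a protein sequence and across linkers. Negative Z-scores can be read as non-binding.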
# [2] = biological target: Fuc(a1-2)Gal(b1-4)GlcNAc(b1-3)GalNAc
# Outline: as §1
# [3] = biological target: Fuc(a1-2)Gal(b1-4)GlcNAc(b1-3)[Fuc(a1-2)Gal(b1-4)GlcNAc(b1-6)]GalNAc
# Outline: as §1
# [4] = biological target: Fuc(a1-2)Gal(b1-4)GlcNAc(b1-3)[Fuc(a1-3)[Gal(b1-4)]GlcNAc(b1-6)]Gal(b1-4)Glc
# Outline: as §1
# [5] = biological target: Fuc(a1-2)Gal(b1-4)GlcNAc(b1-6)GalNAc
# Outline: as §1
# [6] = biological target: Fuc(a1-2)Gal(b1-4)GlcNAc6S
# Outline: as §1
# [7] = biological target: Fuc(a1-2)Gal(b1-4)[Fuc(a1-3)]GlcNAc
# Outline: as §1
# [8] = biological target: Fuc(a1-2)Gal(b1-4)[Fuc(a1-3)]GlcNAc(b1-2)Man(a1-3)[Fuc(a1-2)Gal(b1-4)[Fuc(a1-3)]GlcNAc(b1-2)Man(a1-6)]Man(b1-4)GlcNAc(b1-4)[Fuc(a1-6)]GlcNAc
# Outline: as §1
# [9] = biological target: Fuc(a1-2)Gal(b1-4)[Fuc(a1-3)]GlcNAc(b1-2)[Fuc(a1-2)Gal(b1-4)[Fuc(a1-3)]GlcNAc(b1-4)]Man(a1-3)[Fuc(a1-2)Gal(b1-4)[Fuc(a1-3)]GlcNAc(b1-2)Man(a1-6)]Man(b1-4)GlcNAc(b1-4)GlcNAc
# Outline: as §1
# [10] = biological target: Fuc(a1-2)Gal(b1-4)[Fuc(a1-3)]GlcNAc(b1-3)Gal(b1-4)[Fuc(a1-3)]GlcNAc
# Outline: as §1
# [11] = biological target: Fuc(a1-2)Gal(b1-4)[Fuc(a1-3)]GlcNAc(b1-3)Gal(b1-4)[Fuc(a1-3)]GlcNAc(b1-3)Gal(b1-4)[Fuc(a1-3)]GlcNAc
# Outline: as §1
# [12] = biological target: Fuc(a1-2)Gal(b1-4)[Fuc(a1-3)]GlcNAc(b1-3)GalNAc
# Outline: as §1
# [13] = biological target: Fuc(a1-2)Gal(b1-4)[Fuc(a1-3)]GlcNAc(b1-3)[Neu5Ac(a2-6)Gal(b1-4)GlcNAc(b1-6)]Gal(b1-4)Glc
# Outline: as §1
# [14] = biological target: Fuc(a1-2)Gal3S(b1-4)GlcNAc
# Outline: as §1
# [15] = biological target: Fuc(a1-2)Gal6S(b1-3)GlcNAc
# Outline: as §1
# [16] = biological target: Fuc(a1-2)Gal6S(b1-3)GlcNAc6S
# Outline: as §1
# Fuc(a1-2)Gal6S(b1-4)Glc = biological target: Fuc(a1-2)Gal6S(b1-4)Glc
# Outline: as §1
# [17] = biological target: Fuc(a1-2)Gal6S(b1-4)Glc6S
# Outline: as §1
# Fuc(a1-2)[Gal(a1-3)]Gal = biological target: Fuc(a1-2)[Gal(a1-3)]Gal
# Outline: as §1
# [18] = biological target: Fuc(a1-2)[Gal(a1-3)]Gal(b1-3)GalNAc
# Outline: as §1
# [19] = biological target: Fuc(a1-2)[Gal(a1-3)]Gal(b1-3)GalNAc(b1-3)Gal(a1-4)Gal(b1-4)Glc
# Outline: as §1
# [20] = biological target: Fuc(a1-2)[Gal(a1-3)]Gal(b1-3)GlcNAc
# Outline: as §1
# [21] = biological target: Fuc(a1-2)[Gal(a1-3)]Gal(b1-3)GlcNAc(b1-2)Man(a1-3)[Fuc(a1-2)[Gal(a1-3)]Gal(b1-3)GlcNAc(b1-2)Man(a1-6)]Man(b1-4)GlcNAc(b1-4)GlcNAc
# Outline: as §1
# [22] = biological target: Fuc(a1-2)[Gal(a1-3)]Gal(b1-3)GlcNAc(b1-2)Man(a1-3)[Fuc(a1-2)[Gal(a1-3)]Gal(b1-3)GlcNAc(b1-2)Man(a1-6)]Man(b1-4)GlcNAc(b1-4)[Fuc(a1-6)]GlcNAc
# Outline: as §1
# [23] = biological target: Fuc(a1-2)[Gal(a1-3)]Gal(b1-3)GlcNAc(b1-3)GalNAc
# Outline: as §1
# [24] = biological target: Fuc(a1-2)[Gal(a1-3)]Gal(b1-3)GlcNAc(b1-6)GalNAc
# Outline: as §1
# [25] = biological target: Fuc(a1-2)[Gal(a1-3)]Gal(b1-4)Glc
# Outline: as §1
# [26] = biological target: Fuc(a1-2)[Gal(a1-3)]Gal(b1-4)GlcNAc
# Outline: as §1
# [27] = biological target: Fuc(a1-2)[Gal(a1-3)]Gal(b1-4)GlcNAc(b1-2)Man
# Outline: as §1
# [28] = biological target: Fuc(a1-2)[Gal(a1-3)]Gal(b1-4)GlcNAc(b1-2)Man(a1-3)[Fuc(a1-2)[Gal(a1-3)]Gal(b1-4)GlcNAc(b1-2)Man(a1-6)]Man(b1-4)GlcNAc(b1-4)GlcNAc
# Outline: as §1
# [29] = biological target: Fuc(a1-2)[Gal(a1-3)]Gal(b1-4)GlcNAc(b1-2)Man(a1-3)[Fuc(a1-2)[Gal(a1-3)]Gal(b1-4)GlcNAc(b1-2)Man(a1-6)]Man(b1-4)GlcNAc(b1-4)[Fuc(a1-6)]GlcNAc
# Outline: as §1
# [30] = biological target: Fuc(a1-2)[Gal(a1-3)]Gal(b1-4)GlcNAc(b1-3)GalNAc
# Outline: as §1
# [31] = biological target: Fuc(a1-2)[Gal(a1-3)]Gal(b1-4)GlcNAc(b1-3)[Fuc(a1-2)[Gal(a1-3)]Gal(b1-4)GlcNAc(b1-6)]GalNAc
# Outline: as §1
# [32] = biological target: Fuc(a1-2)[Gal(a1-3)]Gal(b1-4)GlcNAc(b1-6)GalNAc
# Outline: as §1
# [33] = biological target: Fuc(a1-2)[Gal(a1-3)]Gal(b1-4)[Fuc(a1-3)]Glc
# Outline: as §1
# [34] = biological target: Fuc(a1-2)[Gal(a1-3)]Gal(b1-4)[Fuc(a1-3)]GlcNAc
# Outline: as §1
# [35] = biological target: Fuc(a1-2)[Gal(a1-3)]Gal(b1-4)[Fuc(a1-3)]GlcNAc(b1-3)GalNAc
# Outline: as §1
binder,measurement,setting,value
B1,glycan array binding signal (z-score),[1],-0.098
same,glycan array binding signal (z-score),[2],-0.245
same,glycan array binding signal (z-score),[3],-0.059
same,glycan array binding signal (z-score),[4],-0.083
same,glycan array binding signal (z-score),[5],1.5
same,glycan array binding signal (z-score),[6],-0.53
same,glycan array binding signal (z-score),[7],-0.27
same,glycan array binding signal (z-score),[8],0.701
same,glycan array binding signal (z-score),[9],0.407
same,glycan array binding signal (z-score),[10],-0.113
same,glycan array binding signal (z-score),[11],-0.08
same,glycan array binding signal (z-score),[12],-0.577
same,glycan array binding signal (z-score),[13],-0.265
same,glycan array binding signal (z-score),[14],-0.223
same,glycan array binding signal (z-score),[15],-0.167
same,glycan array binding signal (z-score),[16],0.172
same,glycan array binding signal (z-score),Fuc(a1-2)Gal6S(b1-4)Glc,-0.274
same,glycan array binding signal (z-score),[17],0.257
same,glycan array binding signal (z-score),Fuc(a1-2)[Gal(a1-3)]Gal,0.12
same,glycan array binding signal (z-score),[18],-0.039
same,glycan array binding signal (z-score),[19],-0.525
same,glycan array binding signal (z-score),[20],0.093
same,glycan array binding signal (z-score),[21],1.77
same,glycan array binding signal (z-score),[22],-0.412
same,glycan array binding signal (z-score),[23],-0.479
same,glycan array binding signal (z-score),[24],-0.099
same,glycan array binding signal (z-score),[25],-0.1
same,glycan array binding signal (z-score),[26],0.053
same,glycan array binding signal (z-score),[27],-0.035
same,glycan array binding signal (z-score),[28],0.549
same,glycan array binding signal (z-score),[29],-0.293
same,glycan array binding signal (z-score),[30],-0.367
same,glycan array binding signal (z-score),[31],0.131
same,glycan array binding signal (z-score),[32],-0.61
same,glycan array binding signal (z-score),[33],-0.251
same,glycan array binding signal (z-score),[34],-0.308
same,glycan array binding signal (z-score),[35],-0.237
